Test results published in the supplement of paper PMC8007513.
Counter-ions that a name gives are not always drawn. ± gives the standard error. About 75 (6%) of roughly 1,300 compounds showed an effect of 50% or more. This is one part of the list.

Test system: Trichoderma virens ATCC 9645
Experiment: growth yield (OD600) relative to untreated control; higher = less growth inhibition
Conditions: compound concentration: 100 uM
How it was run: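 Library compounds (100 μM final), with or without a co-applied biocide (200 ng ml^−1), were added to 100 μl aliquots of Trichoderma virens ATCC 9645 spores at 15,000 spores ml^−1 in potato dextrose broth. Cultures were grown at 30 °C in 96-well plates, and OD600 was measured at 40 h and 72 h. Each growth value is a mean of duplicate screens, expressed relative to the control with neither agent.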

SMILES | growth yield (40 h) | growth yield (72 h)
COc1ccc(CCN(C)CCCC(C#N)(c2ccc(OC)c(OC)c2)C(C)C)cc1OC (stereo unspecified) [Verapamil hydrochloride] | 77.2 ± 3.5% | 74.4 ± 2.8%
CCCc1cc(=O)[nH]c(=S)[nH]1 [Propylthiouracil] | 104 ± 0.48% | 101 ± 2%
C[N+]1(CCCCC[N+]2(C)CCCC2)CCCC1 [Pentolinium bitartrate] | 102 ± 3% | 102 ± 3%
CN(C)CCCN1c2ccccc2Sc2ccccc21 [Promazine hydrochloride] | 91.33 ± 0.16% | 95.6%
Cc1cc(C(C)(C)C)c(O)c(C)c1CC1=NCCN1 [Oxymetazoline hydrochloride] | 101 ± 2.1% | 102.9 ± 0.73%
NS(=O)(=O)c1cc(C(=O)O)cc(N2CCCC2)c1Oc1ccccc1 [Piretanide] | 109 ± 3.6% | 104 ± 1.7%
COc1ccc([C@@H]2CC(=O)c3c(O)cc(O[C@@H]4O[C@H](CO[C@@H]5O[C@@H](C)[C@H](O)[C@@H](O)[C@H]5O)[C@@H](O)[C@H](O)[C@H]4O)cc3O2)cc1O [Hesperidin] | 99.43 ± 0.95% | 99.42 ± 0.84%
CC(C)(C(=O)O)c1ccc(C(O)CCCN2CCC(C(O)(c3ccccc3)c3ccccc3)CC2)cc1 (stereo unspecified) [Fexofenadine hydrochloride] | 101 ± 4% | 97.6 ± 3%
Cc1c(C)c2c(c(C)c1O)CCC(C)(COc1ccc(CC3SC(=O)NC3=O)cc1)O2 (stereo unspecified) [Troglitazone] | 102 ± 5.9% | 92.9 ± 1.3%
COC(c1ccccc1)(c1ccccc1)[C@H](Oc1nc(C)cc(C)n1)C(=O)O [Ambrisentan] | 98.48 ± 0.32% | 99.63 ± 0.63%
CSc1ccc2c(c1)C(N1CCN(C)CC1)Cc1ccccc1S2 (stereo unspecified) [Methiothepin maleate] | 43.5 ± 3.5% | 75.4 ± 3.2%
CC(C(=O)O)c1ccc2c(c1)Cc1cccnc1O2 (stereo unspecified) [Pranoprofen] | 91.2 ± 1.6% | 90.3 ± 0.1%
COC(=O)Nc1nc2cc(C(=O)c3ccccc3)ccc2[nH]1 [Mebendazole] | 89.4 ± 6.2% | 93.1 ± 3.8%
CC1(C)S[C@@H]2[C@H](NC(=O)[C@H](NC(=O)N3CCNC3=O)c3ccccc3)C(=O)N2[C@H]1C(=O)O [Azlocillin sodium salt] | 96.26 ± 0.32% | 94.81 ± 0.21%
CC(C)c1ccc2oc3nc(N)c(C(=O)O)cc3c(=O)c2c1 [Amlexanox] | 89 ± 0.95% | 91.56 ± 0.52%
Cc1cc2c(cc1S(N)(=O)=O)S(=O)(=O)CCC2 [Meticrane] | 101 ± 1.6% | 98.37 ± 0.21%
NCCNCCNCCNCCN [Tetraethylenepentamine pentahydrochloride] | 103 ± 2.5% | 99.8 ± 2.9%
CN1C(C)(C)CCCC1(C)C [Pempidine] | 96.6 ± 3.8% | 96 ± 1.4%
Cc1onc(-c2c(Cl)cccc2Cl)c1C(=O)N[C@@H]1C(=O)N2[C@@H]1SC(C)(C)[C@@H]2C(=O)O [Dicloxacillin sodium salt hydrate] | 100% | 96.7%
CN(C)/N=N/c1[nH]cnc1C(N)=O [Dacarbazine] | 95.6 ± 1.9% | 98 ± 3.4%
C[N+](C)(C)CCCCCC[N+](C)(C)C [Hexamethonium dibromide dihydrate] | 98.5 ± 1.3% | 95.96 ± 0.1%
CC[N+](C)(C)Cc1ccccc1Br [Bretylium tosylate] | 99.3 ± 3.6% | 97.5%
COc1ccc(C(Cl)=C(c2ccc(OC)cc2)c2ccc(OC)cc2)cc1 [Chlorotrianisene] | 101 ± 2.7% | 96.7 ± 1.5%

SMILES | growth yield (40 h) | growth yield (72 h)
Cc1oncc1C(=O)Nc1ccc(C(F)(F)F)cc1 [Leflunomide] | 72.4 ± 11% | 94.5 ± 12%
O=C(O)c1cccnc1Nc1cccc(C(F)(F)F)c1 [Niflumic acid] | 71.6 ± 0.79% | 81.4 ± 2.3%
CCOC(=O)[C@H](CCc1ccccc1)N[C@@H](C)C(=O)N1Cc2ccccc2C[C@H]1C(=O)O [Quinapril hydrochloride] | 98.8 ± 3.8% | 98.1 ± 1.1%
CC1(C)OC(=O)NC1=O [Dimethadione] | 100 ± 1.3% | 96.9 ± 1.1%
N=C(N)NCC1COC2(CCCCC2)O1 (stereo unspecified) [Guanadrel sulfate] | 102 ± 1.9% | 97.43 ± 0.73%
CCC[C@H](N[C@@H](C)C(=O)N1[C@H](C(=O)O)C[C@@H]2CCCC[C@@H]21)C(=O)OCC [Perindopril] | 101 ± 3.5% | 96.9 ± 2.5%
Nc1ccc(C(=O)NCC(=O)O)cc1 [Aminohippuric acid] | 101 ± 5.2% | 104 ± 3.6%
COc1ccc(NS(=O)(=O)c2ccc(N)cc2)nn1 [Sulfamethoxypyridazine] | 103 ± 3.8% | 99.2 ± 3.1%
Nc1ccc(S(=O)(=O)c2ccc(N)cc2)cc1 [Dapsone] | 106 ± 3.8% | 114 ± 2.3%
OCCN1CCN(CCCN2c3ccccc3Sc3ccc(Cl)cc32)CC1 [Perphenazine] | 59.1 ± 5.1% | 113 ± 14%
CN(C)CCc1c[nH]c2ccc(Cn3cncn3)cc12 [Rizatriptan benzoate] | 101 ± 2.9% | 98.4 ± 2.5%
C=C1C[C@H]2[C@@H]3C=C(C)C4=CC(=O)CC[C@]4(C)[C@H]3CC[C@]2(C)[C@@]1(OC(C)=O)C(C)=O [Melengestrol acetate] | 96.6 ± 1.6% | 94.5 ± 2.4%
CC(=O)Oc1cccc2c1C(=O)c1c(OC(C)=O)cc(C(=O)O)cc1C2=O [Diacerein] | 81.48 ± 0.79% | 72.58 ± 0.21%
CN1CCCCC1CCN1c2ccccc2Sc2ccc([S+](C)[O-])cc21 (stereo unspecified) [Mesoridazine besylate] | 106.3 ± 0.79% | 103 ± 1.9%
NC(=O)N/N=C/c1ccc([N+](=O)[O-])o1 [Nitrofural] | 95.5 ± 1.8% | 97.12 ± 0.84%
CCCC(=O)Nc1ncnc2c1ncn2[C@@H]1O[C@@H]2COP(=O)(O)O[C@H]2[C@H]1OC(=O)CCC [Bucladesine sodium salt] | 97.69 ± 0.79% | 97.75 ± 0.42%
CN(C)CCC[C@@]1(c2ccc(F)cc2)OCc2cc(C#N)ccc21 [Escitalopram oxalate] | 102 ± 4.3% | 103 ± 3.5%
CN1CCCC(n2nc(Cc3ccc(Cl)cc3)c3ccccc3c2=O)CC1 (stereo unspecified) [Azelastine hydrochloride] | 111 ± 5.2% | 116 ± 4.9%
CCN1CCN(C(=O)N[C@@H](C(=O)N[C@@H]2C(=O)N3[C@@H]2SC(C)(C)[C@@H]3C(=O)O)c2ccccc2)C(=O)C1=O [Piperacillin sodium salt] | 107 ± 2.5% | 102 ± 1.1%
CO[C@@H]1[C@@H](OC(N)=O)[C@@H](O)[C@H](Oc2ccc3c(O)c(NC(=O)c4ccc(O)c(CC=C(C)C)c4)c(=O)oc3c2C)OC1(C)C [Novobiocin sodium salt] | 92 ± 1.8% | 115 ± 4.7%
CN1C2CCCC1CC(NC(=O)c1nn(C)c3ccccc13)C2 (stereo unspecified) [Granisetron] | 105.6 ± 0.48% | 100.8 ± 0.94%
CC(C)N1CCN(c2ccc(OCC3COC(Cn4cncn4)(c4ccc(Cl)cc4Cl)O3)cc2)CC1 (stereo unspecified) [Terconazole] | 82.44 ± 0.16% | 88.4 ± 1.1%
O=C(NCCNCC(O)COc1ccc(O)cc1)N1CCOCC1 (stereo unspecified) [Xamoterol hemifumarate] | 95.3 ± 4.1% | 94.8 ± 1.7%

SMILES | growth yield (40 h) | growth yield (72 h)
CN(C)CCOC1=Cc2ccccc2Sc2ccc(Cl)cc21 [Zotepine] | 89.7 ± 14% | 114 ± 11%
CCN(Cc1ccncc1)C(=O)C(CO)c1ccccc1 (stereo unspecified) [Tropicamide] | 99.6 ± 1.8% | 102 ± 1.1%
OC(CCN1CCCCC1)(c1ccccc1)C1CC2C=CC1C2 (stereo unspecified) [Biperiden hydrochloride] | 104 ± 2.9% | 105 ± 1.9%
Cc1ncc([N+](=O)[O-])n1CCO [Metronidazole] | 101 ± 2.5% | 98.6 ± 2.5%
CCN(CC)CC#CCOC(=O)C(O)(c1ccccc1)C1CCCCC1 (stereo unspecified) [Oxybutynin chloride] | 95.94 ± 0.32% | 99.84 ± 0.84%
COc1ccc(C(=O)NCc2cccnc2)cc1C(=O)NCc1cccnc1 [Picotamide monohydrate] | 104 ± 1.8% | 105 ± 2.3%
Cc1ccc(C(=O)c2cc(O)c(O)c([N+](=O)[O-])c2)cc1 [Tolcapone] | 51.3 ± 8.1% | 58.8 ± 11%
NC[C@H]1O[C@H](O[C@H]2[C@H](O[C@@H]3O[C@H](CO)[C@@H](O)[C@H]3O)[C@@H](O)[C@H](N)C[C@@H]2N)[C@H](N)[C@@H](O)[C@@H]1O [Ribostamycin sulfate salt] | 106 ± 2.1% | 99.2 ± 1.9%
COc1ccc2[nH]cc(CCNC(C)=O)c2c1 [Melatonin] | 101% | 97.3%
CCn1cc(C(=O)O)c(=O)c2cnc(N3CCNCC3)nc21 [Pipemidic acid] | 94.4 ± 3.5% | 92.7%
CCCCS(=O)(=O)N[C@@H](Cc1ccc(OCCCCC2CCNCC2)cc1)C(=O)O [Tirofiban hydrochloride] | 102 ± 2.5% | 103 ± 2.6%
COc1cc2nc(N3CCN(C(=O)c4ccco4)CC3)nc(N)c2cc1OC [Prazosin hydrochloride] | 105 ± 5.7% | 101 ± 1.4%
COc1nc(C)nc(Cl)c1NC1=NCCN1 [Moxonidine] | 103.9 ± 0.95% | 102 ± 1.5%
Cc1ccc(S(=O)(=O)NC(=O)NN2CC3CCCC3C2)cc1 (stereo unspecified) [Gliclazide] | 104.8 ± 0.32% | 106 ± 2.4%
CC(=O)N[C@@H](CC(=O)N[C@@H](CCC(=O)O)C(=O)O)C(=O)O [Spaglumic acid] | 101 ± 3.5% | 99.5 ± 1.4%
C#CCN(C)Cc1ccccc1 [Pargyline hydrochloride] | 105 ± 2.1% | 107 ± 2.9%
COc1ccc2cc(CCC(C)=O)ccc2c1 [Nabumetone] | 52.7 ± 5.1% | 61.5 ± 2.9%
CCn1cc(C(=O)O)c(=O)c2ccc(C)nc21 [Nalidixic acid sodium salt] | 84.82 ± 0.32% | 104 ± 2.3%
CCN(CC)CCNC(=O)c1cc(S(C)(=O)=O)ccc1OC [Tiapride hydrochloride] | 104 ± 4.8% | 104 ± 4.7%
O=C(CCCN1CC=C(n2c(=O)[nH]c3ccccc32)CC1)c1ccc(F)cc1 [Droperidol] | 104 ± 3% | 108 ± 1.8%
CO[C@H]1/C=C/O[C@@]2(C)Oc3c(C)c(O)c4c(c3C2=O)C2=NC3(CCN(CC(C)C)CC3)NC2=C(NC(=O)/C(C)=C\C=C\[C@H](C)[C@H](O)[C@@H](C)[C@@H](O)[C@@H](C)[C@H](OC(C)=O)[C@@H]1C)C4=O [Rifabutin] | 106 ± 4.3% | 103.1 ± 0.94%
O=C(Cn1ccnc1[N+](=O)[O-])NCCO [Etanidazole] | 101 ± 2.2% | 98 ± 1.9%
